The structures appear in SMILES notation.

In general, IC50 refers to the concentration at which inhibition is half-maximal.

In the assay the target is N-terminal truncated recombinant human PDE7B enzyme (Homo sapiens (Human), UniProt Q9NP56). The experiment in a line: biochemical.
Turning to `O=C1Nc2c(Cl)cc3cc(C(=O)N4C[C@H]5C[C@H]5C4)oc3c2C2(CCCCC2)N1` [Example 322, 2′-[(1R,5S)-3-azabicyclo[3.1.0]hexane-3-carbonyl]-5′-chloro-7′,8′-dihydro-6′H-spiro[cyclohexane-1,9′-furo[2,3-f]quinazoline]-7′-one], the IC50 lay within 10 to 100 nM.

For the compound `O=C1Nc2c(Cl)cc3cc(C(=O)NCCn4cccn4)oc3c2C2(CCCCC2)N1` [Example 324, 5′-Chloro-7′-oxo-N-[2-(1H-pyrazol-1-yl)ethyl]-7′,8′-dihydro-6′H-spiro[cyclohexane-1,9′-furo[2,3-f]quinazoline]-2′-carboxamide], the IC50 fell in the range of 10 to 100 nM.

For the compound `O=C1Nc2c(Cl)cc3cc(C(=O)Nc4ccc(N5CCC(O)CC5)cc4)oc3c2C2(CCCCC2)N1` [Example 325, 5′-Chloro-N-[4-(4-hydroxypiperidin-1-yl)phenyl]-7′-oxo-7′,8′-dihydro-6′H-spiro[cyclohexane-1,9′-furo[2,3-f]quinazoline]-2′-carboxamide], the concentration for half-maximal inhibition (IC50) was 10 to 100 nM.

Take `CC(C)(C)C(=O)CNC(=O)c1cc2cc(Cl)c3c(c2o1)C1(CCCCC1)NC(=O)N3` [Example 326, 5′-Chloro-N-(3,3-dimethyl-2-oxobutyl)-7′-oxo-7′,8′-dihydro-6′H-spiro[cyclohexane-1,9′-furo[2,3-f]quinazoline]-2′-carboxamide]: the IC50 was in the range of 10 to 100 nM.

`CN(Cc1ccco1)C(=O)c1cc2cc(Cl)c3c(c2o1)C1(CCCCC1)NC(=O)N3` [Example 327, 5′-Chloro-N-(furan-2-ylmethyl)-N-methyl-7′-oxo-7′,8′-dihydro-6′H-spiro[cyclohexane-1,9′-furo[2,3-f]quinazoline]-2′-carboxamide]: the IC50 lay within 10 to 100 nM.

As to `CN(C)CCC1CCN(C(=O)c2cc3cc(Cl)c4c(c3o2)C2(CCCCC2)NC(=O)N4)CC1` [Example 328, 5′-Chloro-2′-{4-[2-(dimethylamino)ethyl]piperidine-1-carbonyl}-7′,8′-dihydro-6′H-spiro[cyclohexane-1,9′-furo[2,3-f]quinazoline]-7′-one], the IC50 was 10 to 100 nM.

As to `O=C1Nc2c(Cl)cc3cc(C(=O)N4CCN(c5ccc(Cl)cn5)CC4)oc3c2C2(CCCCC2)N1` [Example 329, 5′-Chloro-2′-{4-(5-chloropyridin-2-yl)piperazine-1-carbonyl}-7′,8′-dihydro-6′H-spiro[cyclohexane-1,9′-furo[2,3-f]quinazoline]-7′-one], the IC50 lay in the range of 100 to 1000 nM.

Regarding `COc1ccccc1CNC(=O)c1cc2cc(Cl)c3c(c2o1)C1(CCCCC1)NC(=O)N3` [Example 330, 5′-Chloro-N-[(2-methoxyphenyl)methyl]-7′-oxo-7′,8′-dihydro-6′H-spiro[cyclohexane-1,9′-furo[2,3-f]quinazoline]-2′-carboxamide], the IC50 was in the range of 100 to 1000 nM.

Take `CC(C)(O)CNC(=O)c1cc2cc(Cl)c3c(c2o1)C1(CCCCC1)NC(=O)N3` [Example 331, 5′-Chloro-N-(2-hydroxy-2-methylpropyl)-7′-oxo-7′,8′-dihydro-6′H-spiro[cyclohexane-1,9′-furo[2,3-f]quinazoline]-2′-carboxamide]: the IC50 fell in the range of 10 to 100 nM.

Turning to `CC(C)N1CCN(C(=O)c2cc3cc(Cl)c4c(c3o2)C2(CCCCC2)NC(=O)N4)CC1=O` [Example 333, 5′-Chloro-2′-[3-oxo-4-(propan-2-yl)piperazine-1-carbonyl]-7′,8′-dihydro-6′H-spiro[cyclohexane-1,9′-furo[2,3-f]quinazoline]-7′-one], the IC50 fell in the range of 10 to 100 nM.

On to `O=C1Nc2c(Cl)cc3cc(C(=O)N4CCN(C5COC5)CC4)oc3c2C2(CCCCC2)N1` [Example 335, 5′-Chloro-2′-[4-(oxetan-3-yl)piperazine-1-carbonyl]-7′,8′-dihydro-6′H-spiro[cyclohexane-1,9′-furo[2,3-f]quinazoline]-7′-one], for which the IC50 lay in the range of 10 to 100 nM.

As to `O=C1Nc2c(Cl)cc3cc(C(=O)NCCc4ccc5c(c4)OCO5)oc3c2C2(CCCCC2)N1` [Example 337, N-[2-(2H-1,3-benzodioxol-5-yl)ethyl]-5′-chloro-7′-oxo-7′,8′-dihydro-6′H-spiro[cyclohexane-1,9′-furo[2,3-f]quinazoline]-2′-carboxamide], the IC50 was 10 to 100 nM.

Consider `CCn1cnnc1CN(C)C(=O)c1cc2cc(Cl)c3c(c2o1)C1(CCCCC1)NC(=O)N3` [Example 338, 5′-Chloro-N-[(4-ethyl-4H-1,2,4-triazol-3-yl)methyl]-N-methyl-7′-oxo-7′,8′-dihydro-6′H-spiro[cyclohexane-1,9′-furo[2,3-f]quinazoline]-2′-carboxamide], for which the IC50 lay in the range of 100 to 1000 nM.

Turning to `N#Cc1ccc(CNC(=O)c2cc3cc(Cl)c4c(c3o2)C2(CCCCC2)NC(=O)N4)cc1F` [Example 339, 5′-Chloro-N-[(4-cyano-3-fluorophenyl)methyl]-7′-oxo-7′,8′-dihydro-6′H-spiro[cyclohexane-1,9′-furo[2,3-f]quinazoline]-2′-carboxamide], the IC50 was in the range of 100 to 1000 nM.

In the case of `CCN(CC)C(=O)CNC(=O)c1cc2cc(Cl)c3c(c2o1)C1(CCCCC1)NC(=O)N3` [Example 340, 2-{5′-Chloro-7′-oxo-7′,8′-dihydro-6′H-spiro[cyclohexane-1,9′-furo[2,3-f]quinazoline]-2′-ylformamido}-N,N-diethylacetamide], the IC50 lay within 10 to 100 nM.

For the compound `CN1CCc2ccsc2C12CCN(C(=O)c1cc3cc(Cl)c4c(c3o1)C1(CCCCC1)NC(=O)N4)CC2` [Example 341, 5′-Chloro-2′-({6′-methyl-5′,6′-dihydro-4′H-spiro[piperidine-4,7′-thieno[2,3-c]pyridine]-1-yl}carbonyl)-7′,8′-dihydro-6′H-spiro[cyclohexane-1,9′-furo[2,3-f]quinazoline]-7′-one], the IC50 is 10 to 100 nM.

`Cc1ccc(CNC(=O)c2cc3cc(Cl)c4c(c3o2)C2(CCCCC2)NC(=O)N4)cn1` [Example 342, 5′-Chloro-N-[(6-methylpyridin-3-yl)methyl]-7′-oxo-7′,8′-dihydro-6′H-spiro[cyclohexane-1,9′-furo[2,3-f]quinazoline]-2′-carboxamide]: the IC50 fell in the range of 10 to 100 nM.

For the compound `Cc1nc(CNC(=O)c2cc3cc(Cl)c4c(c3o2)C2(CCCCC2)NC(=O)N4)n(C)c1C` [Example 343, 5′-Chloro-7′-oxo-N-[(trimethyl-1H-imidazol-2-yl)methyl]-7′,8′-dihydro-6′H-spiro[cyclohexane-1,9′-furo[2,3-f]quinazoline]-2′-carboxamide], the IC50 lay in the range of 10 to 100 nM.

Turning to `Cc1cncc(CNC(=O)c2cc3cc(Cl)c4c(c3o2)C2(CCCCC2)NC(=O)N4)c1` [Example 344, 5′-Chloro-N-[(5-methylpyridin-3-yl)methyl]-7′-oxo-7′,8′-dihydro-6′H-spiro[cyclohexane-1,9′-furo[2,3-f]quinazoline]-2′-carboxamide], the IC50 was in the range of 10 to 100 nM.

Take `CN(Cc1cc(-c2ccccc2)on1)C(=O)c1cc2cc(Cl)c3c(c2o1)C1(CCCCC1)NC(=O)N3` [Example 345, 5′-Chloro-N-methyl-7′-oxo-N-[(5-phenyl-1,2-oxazol-3-yl)methyl]-7′,8′-dihydro-6′H-spiro[cyclohexane-1,9′-furo[2,3-f]quinazoline]-2′-carboxamide]: the IC50 is 100 to 1000 nM.

In the case of `O=C1Nc2c(Cl)cc3cc(C(=O)N4CCC5(CC4)CC5)oc3c2C2(CCCCC2)N1` [Example 346, 2′-{6-Azaspiro[2.5]octane-6-carbonyl}-5′-chloro-7′,8′-dihydro-6′H-spiro[cyclohexane-1,9′-furo[2,3-f]quinazoline]-7′-one], the IC50 was in the range of 100 to 1000 nM.

In the case of `O=C1Nc2c(Cl)cc3cc(C(=O)NCCC4CCOCC4)oc3c2C2(CCCCC2)N1` [Example 347, 5′-Chloro-N-[2-(oxan-4-yl)ethyl]-7′-oxo-7′,8′-dihydro-6′H-spiro[cyclohexane-1,9′-furo[2,3-f]quinazoline]-2′-carboxamide], the IC50 lay in the range of 10 to 100 nM.

With `O=C1Nc2c(Cl)cc3cc(C(=O)N4CCC5(CC4)NCCc4sccc45)oc3c2C2(CCCCC2)N1` [Example 348, 5′-Chloro-2′-({6′,7′-dihydro-5′H-spiro[piperidine-4,4′-thieno[3,2-c]pyridine]-1-yl}carbonyl)-7′,8′-dihydro-6′H-spiro[cyclohexane-1,9′-furo[2,3-f]quinazoline]-7′-one], the IC50 fell in the range of 10 to 100 nM.

Turning to `COCC(C)(C)NC(=O)c1cc2cc(Cl)c3c(c2o1)C1(CCCCC1)NC(=O)N3` [Example 349, 5′-Chloro-N-(1-methoxy-2-methylpropan-2-yl)-7′-oxo-7′,8′-dihydro-6′H-spiro[cyclohexane-1,9′-furo[2,3-f]quinazoline]-2′-carboxamide], the IC50 lay within 10 to 100 nM.

With `O=C1Nc2c(Cl)cc3cc(C(=O)NC4CCN(c5cccnc5)CC4)oc3c2C2(CCCCC2)N1` [Example 350, 5′-Chloro-7′-oxo-N-(1-(pyridin-3-yl)piperidin-4-yl)-7′,8′-dihydro-6′H-spiro[cyclohexane-1,9′-furo[2,3-f]quinazoline]-2′-carboxamide], the 50% inhibitory concentration (IC50) lay in the range of 10 to 100 nM.

Take `O=C1Nc2c(Cl)cc3cc(C(=O)N4CCC5(CC4)OCCc4ccccc45)oc3c2C2(CCCCC2)N1` [Example 351, 5′-Chloro-2′-({3,4-dihydrospiro[2-benzopyran-1,4′-piperidine]-1′-yl}carbonyl)-7′,8′-dihydro-6′H-spiro[cyclohexane-1,9′-furo[2,3-f]quinazoline]-7′-one]: the IC50 fell in the range of 100 to 1000 nM.

`O=C1Nc2c(Cl)cc3cc(C(=O)NCCOc4ccccc4)oc3c2C2(CCCCC2)N1` [Example 352, 5′-Chloro-7′-oxo-N-(2-phenoxyethyl)-7′,8′-dihydro-6′H-spiro[cyclohexane-1,9′-furo[2,3-f]quinazoline]-2′-carboxamide]: the IC50 fell in the range of 10 to 100 nM.

For the compound `CN(C)C(=O)CCNC(=O)c1cc2cc(Cl)c3c(c2o1)C1(CCCCC1)NC(=O)N3` [Example 353, 3-{5′-Chloro-7′-oxo-7′,8′-dihydro-6′H-spiro[cyclohexane-1,9′-furo[2,3-f]quinazoline]-2′-ylformamido}-N,N-dimethylpropanamide], the half-maximal inhibitory concentration (IC50) lay in the range of 100 to 1000 nM.

In the case of `COCC1(NC(=O)c2cc3cc(Cl)c4c(c3o2)C2(CCCCC2)NC(=O)N4)CC1` [Example 354, 5′-Chloro-N-[1-(methoxymethyl)cyclopropyl]-7′-oxo-7′,8′-dihydro-6′H-spiro[cyclohexane-1,9′-furo[2,3-f]quinazoline]-2′-carboxamide], the IC50 was in the range of 10 to 100 nM.
